Assay results: PubChem BioAssay AID1159614 (National Center for Advancing Translational Sciences (NCATS), 2016)
Hit rate of the full screen: of about 45,000 compounds, about 65 (0.1%) were called active. The call rests on the fitted dose curve; in most records, active means well fitted activation curve with a large enough effect; inconclusive means small, poorly fitted or top-dose-only effect; inactive means no such curve, though single readings can be large or run the other way. This is one part of the list.

Target: Galactocerebrosidase (Homo sapiens) (UniProt P54803)
UniProt P54803, sequence (P54803 whole entry, looked up): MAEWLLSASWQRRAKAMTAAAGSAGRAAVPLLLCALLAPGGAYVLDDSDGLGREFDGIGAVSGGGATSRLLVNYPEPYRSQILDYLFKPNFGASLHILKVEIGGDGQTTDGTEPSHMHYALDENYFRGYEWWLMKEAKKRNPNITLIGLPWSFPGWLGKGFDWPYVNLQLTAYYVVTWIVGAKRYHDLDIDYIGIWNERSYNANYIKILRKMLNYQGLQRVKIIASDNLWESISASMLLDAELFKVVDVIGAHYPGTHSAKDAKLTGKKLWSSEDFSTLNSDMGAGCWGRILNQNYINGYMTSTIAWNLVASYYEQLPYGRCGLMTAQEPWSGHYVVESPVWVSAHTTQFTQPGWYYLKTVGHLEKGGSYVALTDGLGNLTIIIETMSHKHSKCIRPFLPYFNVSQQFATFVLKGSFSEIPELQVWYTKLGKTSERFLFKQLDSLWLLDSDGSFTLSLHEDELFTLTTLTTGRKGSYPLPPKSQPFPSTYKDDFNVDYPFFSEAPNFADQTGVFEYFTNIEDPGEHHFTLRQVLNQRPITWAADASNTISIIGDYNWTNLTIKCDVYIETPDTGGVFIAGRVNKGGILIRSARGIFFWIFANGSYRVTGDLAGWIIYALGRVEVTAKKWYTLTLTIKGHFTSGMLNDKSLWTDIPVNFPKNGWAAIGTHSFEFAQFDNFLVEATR
Test: A Novel Cell-Based Assay to Identify Small Molecules for B -Galactocerebrosidase; further: 0% is about no effect; nearly all actives have a fitted effect of over 65% in size
Conditions: 145M-Twi-hGALC-G270D cells (Twitcher mouse brain line with human GALC G270D), HMU-beta-Gal fluorescence, 48 h; series mostly up to 57.5 µM; activation: at the top concentration
Outline: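 Mutant human GALC (G270D), stably expressed in a Twitcher mouse brain cell line lacking endogenous GALC, is measured in live-treated cells via 6-hexadecanoylamino-4-methylumbelliferyl-β-galactoside hydrolysis (0.1 mM final, pH 5.2) with fluorescent detection.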

activation, inactive:
Cc1ccc(C(=O)N2CCc3cc(CNS(=O)(=O)c4cccs4)ccc32)cc1 -0.825%, COc1ccc(N2CCN(C(c3ccccc3)c3sc4nc(-c5ccco5)nn4c3O)CC2)cc1 (stereo not given) -22.2%, O=C(Nc1nc2c(s1)CCCCCC2)Nc1ccc(F)cc1F -15.6%, Cc1cccc(C2C=C(c3ccc(C)c(C)c3)Nc3nnnn32)c1 (stereo not given) -15%, Cc1cc(F)ccc1S(=O)(=O)Nc1ccc2oc3c(c2c1)CC(C)CC3 (stereo not given) -21.1%, Cc1nc2ccn(Cc3ccccc3)c(=O)c2cc1C(=O)N1CCN(c2ccccc2F)CC1 -11.8%, COc1cc(OC)cc(-c2cc3nc(C)c(CCC(=O)NCc4ccccc4)c(C)n3n2)c1 -12.6%, CCOc1ccccc1C(=O)NC1(C(F)(F)F)NC(=O)N(CCc2ccc(OC)c(OC)c2)C1=O (stereo not given) -1.53%, COc1ccccc1N1CCN(C(=O)c2cn(CC(C)C)c(=O)c3c2c2ccccc2n3C)CC1 -3.97%, O=C(Nc1ccc(O)c(-c2nc3ccccc3o2)c1)c1sc2ccccc2c1Cl -0.43%, O=C(CSCc1cnn(-c2ccccc2)c1-n1cccc1)NCc1ccc(Cl)cc1 -2.36%, O=C(Nc1nnc(S(=O)(=O)N2CCCc3ccccc32)s1)c1ccccc1Cl -5.72%, CC(C)c1ccc(NC(=O)c2ccc3c(c2)CCN3S(=O)(=O)c2ccccc2)cc1 -29.1%, COc1ccc(CCNc2nc(-c3ccc(Cl)cc3)cc(C(F)(F)F)n2)cc1OC -5.05%, CCOC(=O)c1c(C)[nH]c(C)c1S(=O)(=O)N1CCC(C(=O)N2CCN(c3cccc(C)c3C)CC2)CC1 -7.91%, COc1ccccc1-c1nc2c(c(SCc3ccc(F)cc3Cl)n1)Cc1c(CO)cnc(C)c1O2 -6.42%, O=C(Nc1ccc(F)cc1)c1ccc(Cn2nc(N3CCN(c4ccccc4)CC3)ccc2=O)o1 -11.7%, COC(=O)c1ccc(NC(=O)CCc2c(C)nn(-c3ccc(N4CCOCC4)nn3)c2C)cc1 -6.46%, COc1ccc(Cl)cc1NC(=O)Cc1coc2c(C)c(C)ccc12 -43.2%, CCc1ccc(NC(=O)c2sc3nc4c(cc3c2N)CN(CC)CC4)cc1 -6.64%, Cc1cc(C)c2c(=O)cc(C(=O)Nc3nc4ccc(F)cc4s3)oc2c1 -12.6%, CCC(CC)C(=O)Nc1c(C(=O)N2CCN(c3ccccc3)CC2)oc2ccccc12 -23%, Cc1ccc(C(=O)Oc2ccc(C(O)CNC(C)(C)C)cc2OC(=O)c2ccc(C)cc2)cc1 (stereo not given) -13.3%, CCc1cccc(NC(=O)Cn2c(=O)c(C(F)(F)F)nc3ccccc32)c1 -3.84%, Cc1ccc(CNS(=O)(=O)c2ccc(-c3cnc(C4CC4)o3)cc2)cc1 -5.65%, Cc1coc2cc3oc(=O)c(CC(=O)N4CCCCC4)c(C)c3cc12 -5.82%, Cc1cccc(CSc2nc3cc(C(=O)NC4CCCC4)ccc3c(=O)n2Cc2ccccc2)c1 -11.5%, Cc1ccc(-n2nc(C(C)(C)C)cc2NC(=O)Nc2ccc(OCCN3CCOCC3)c3ccccc23)cc1 -15.7%, Cc1cc(N(C)Cc2ccccc2)n2nc(-c3ccc(C(C)(C)C)cc3)nc2n1 3.04%, CCCCNC(=O)c1cccc(-n2cnc3cccnc32)c1C -2.69%, CC1CCCCN1C(=O)c1ccc2c(c1)N(Cc1cccc(Cl)c1)C(=O)c1ccccc1S2=O (stereo not given) -1.77%, CCC(NC(=O)Nc1cc(Cl)ccc1OC)c1c(-n2cccc2)sc2c1CCN(C)C2 (stereo not given) -3.9%, CCCCCn1c(=O)[nH]c2cc(C(=O)NCCN(C)CCCC)ccc2c1=O -11.4%, CC1CCN(c2nc3c(-c4cccc(Br)c4)nnn3c3ccccc23)CC1 4.32%, COc1ccc(OCCn2nnc3sc4c(c3c2=O)CCC(C(C)(C)C)C4)cc1 (stereo not given) -17.9%, CCOc1ccc(-c2c(C)nn3c(C)c(C(=O)NCc4ccc(Cl)cc4)cnc23)cc1OCC -6.71%, CCc1ccc(-n2nc3cc(C)c(NC(=O)c4ccccc4C)cc3n2)cc1 -10.1%, O=C(CSc1c2c(nc3ccc(Cl)cc13)CCCC2)NCc1ccccc1Cl 3.22%, COc1ccc(CCNC(=O)c2cc(=O)c3cc(C)cc(C)c3o2)cc1OC -24.3%, N=c1n(CCO)c2ccccc2n1Cc1ccccc1F 1.37%, COc1ccc(Br)c(C(=O)Nc2cc3c(cc2N2CCCC2)n(C)c(=O)c(=O)n3C)c1 -12.7%, CCC(Sc1nc2ccccc2c2nc(CCn3c(C)nc4ccccc43)nn12)C(=O)Nc1ccc(F)cc1 (stereo not given) -7.63%, Cc1ccc(-c2cc(C(=O)OCC(=O)c3ccccc3)c3cccc(Cl)c3n2)cc1 -9.85%, O=C(OCc1ccco1)c1ccc2c(c1)N(Cc1cccc(F)c1)C(=O)c1ccccc1S2 -10%, CCN1C(=O)c2ccccc2S(=O)c2ccc(C(=O)NCc3ccc(C)cc3)cc21 (stereo not given) -4.17%, COc1cc(NC(=O)C2CCN(S(=O)(=O)c3c(C)noc3/C=C/c3cccs3)CC2)cc(OC)c1 -8.64%, COc1ccc(S(=O)(=O)N(CC(=O)Nc2ccc(OC)cc2OC)c2ccc(Cl)cc2)cc1 -1.9%, Cc1ccc2c(c1)c(=O)c(C(=O)c1ccccc1)cn2Cc1ccccc1F -12.1%, COc1ccc(NC(=O)CC2C(=O)N(c3ccccc3)C(=O)N2CCC2=CCCCC2)cc1 (stereo not given) -10.8%, CCOc1cccc(C(=O)Nc2nnc(S(=O)(=O)N(C)c3ccc(C)cc3)s2)c1 -14.9%, CCC1CN(C(=O)Nc2ccccc2C(F)(F)F)c2ccccc2O1 (stereo not given) -11.4%, COc1ccc(/C=C(/C#N)c2nc(-c3cc4ccccc4oc3=O)cs2)cc1 -7.71%, Cc1cccc(N2CC(c3nc4ccc(C)cc4[nH]3)CC2=O)c1 (stereo not given) -6.23%, CCOc1ccccc1C1C(C(N)=O)=C(C)Nc2nc(-c3ccccc3Cl)nn21 (stereo not given) -10.7%, COc1ccc(-c2nc(SCC(=O)c3ccc(Br)cc3)n[nH]2)cc1 -15.3%, Cc1c(CNC2CCC(C)CC2)c(C(=O)O)c(C)n1Cc1ccccc1F (stereo not given) -13.3%, Cn1ccc2cc(S(=O)(=O)N3CCCC(C(=O)NCc4ccc(F)cc4)C3)ccc21 (stereo not given) -18.6%, C=CCSCC1Nc2cc(Cl)c(S(N)(=O)=O)cc2S(=O)(=O)N1 (stereo not given) -28.5%, CCOc1ccc(NC(=O)CC2C(=O)N(c3ccc(C)cc3)C(=O)N2C2CCCCC2)cc1 (stereo not given) -14.6%, Cc1cc(C)n(CCc2nc3c4ccccc4nc(SCc4ccc(Cl)cc4)n3n2)n1 -11.2%, O=C(NC1(C(F)(F)F)N=C(c2ccccc2)N(C2CCCCC2)C1=O)c1ccc(F)cc1 (stereo not given) -18.3%, O=C(CSc1nc(-c2ccc(F)cc2)nc2c1Cc1ccccc1O2)Nc1cccc(C(=O)O)c1 -10.4%, CCOc1ccccc1-c1noc(CCCC(=O)Nc2cccc(C(F)(F)F)c2)n1 -27.2%, CC(=O)Nc1ccc(NC(=O)c2cc3c(=O)n(Cc4cccnc4)ccc3nc2C)cc1 -25.2%, N#Cc1cccc(NC(=O)C2CCN(c3cnccn3)CC2)c1 0.737%, COC(=O)c1ccc(C2C=C(c3ccc(Cl)cc3)Nc3nc4ccccc4n32)cc1 (stereo not given) -9.8%, O=C(NCC(c1cccnc1)N1CCc2ccccc21)c1ccc(F)c(F)c1 (stereo not given) -22.3%, Cc1cc(C)c2oc(C(=O)Nc3c(C)n(C)n(-c4ccccc4)c3=O)cc(=O)c2c1 -15.4%, CC(=O)N1CCc2c(sc3c2c(=O)n(-c2ccccc2C)c(=O)n3CC(=O)c2ccccc2)C1 -4.86%, Cc1ccc(-n2nc3cc(C)c(NC(=O)COc4ccccc4)cc3n2)cc1 -16.4%, Cc1ccc(C(=O)NCC(=O)OCc2cc(=O)n3c(C)csc3n2)cc1 1.57%, Cc1cn(C)c(CC(=O)N2CCN(c3cccc(C(F)(F)F)c3)CC2)c1C(=O)O -8.43%, CCc1cc2c(cc3c(=O)n(CC(=O)NC4CCCCC4)nc(CC)n32)s1 -27%, CCOC(=O)CCN(c1ccccc1)S(=O)(=O)c1cc(-c2cc(C)no2)ccc1C 6.76%, Cc1ccc(-n2cc3c(c2-c2ccccc2Br)c(=O)n(C)c(=O)n3C)cc1N -22.1%, CC(C)n1cc2c(c1-c1ccccc1Cl)c(=O)n(C)c(=O)n2C -19.9%, Cc1ccc(C)c(NC(=O)Cn2c(=O)n(-c3ccccc3C)c(=O)c3c2c2cc(C)ccc2n3C)c1 -4.97%, Cc1ccc(C(C)C)c(OCC(=O)NCC2(N3CCOCC3)CCCCC2)c1 -15.1%, Cc1cccc(C(=O)Nc2cccc(OCc3cc(=O)n4cc(C)sc4n3)c2)c1 -12%, COc1ccccc1-c1nc2c(c(SCC(=O)Nc3ccccc3F)n1)Cc1c(CO)cnc(C)c1O2 -14.1%, COc1ccccc1N1CCN(CCCNC(=O)c2nnc(Cc3c(F)cccc3Cl)o2)CC1 -13.4%, CC(O)CNC(=O)C(=O)Nc1c2c(nn1-c1ccc(Cl)cc1)CSC2 (stereo not given) -13%, CCOc1ccc(CCNC(=O)CS(=O)(=O)Cc2nc(-c3cccc(Cl)c3)oc2C)cc1 11%, COc1ccc(NC(=O)C2CCCN(C(=O)c3cnn(-c4ccccc4)c3-n3cccc3)C2)cc1 (stereo not given) -0.555%, COc1ccc(-c2cc(-c3ccccc3)c(C#N)c(SCC(O)CS(=O)(=O)Cc3ccccc3)n2)cc1 (stereo not given) -6.55%, Cc1ccc2c(=O)cc(C(=O)N(Cc3ccccc3Cl)C3CCS(=O)(=O)C3)oc2c1 (stereo not given) -2.2%, CCN1CCN(CCCNC(=O)Cn2c(-c3cccs3)cc3ccccc32)CC1 -6.97%, Cc1ccc(NC(=O)Cn2c(=O)n(Cc3ccco3)c(=O)c3ccccc32)cc1 4.4%, CCOc1ccc(CNC(=O)c2cc3c(=O)n(C)c4ccccc4c3s2)cc1 0.0109%, O=C(c1ccc2c(c1)OCCO2)N(Cc1cccnc1)c1nc2ccc(F)cc2s1 -12%, O=c1[nH]c(SCc2ccc(F)cc2)nc2c1CCCC2 -8.18%, O=C(Cn1cc(SCc2cccc(Cl)c2)c2ccccc21)N1CCOCC1 -10.6%, COc1cc(C(=O)NC2CC(=O)N(c3cccc(F)c3)C2)cc(OC)c1OC (stereo not given) -4.48%, COc1ccc(-c2ccnc3c(-c4ccc(F)cc4)c(C)nn23)cc1OC -11%, Cc1ccc(NC(=O)C2CCCN2S(=O)(=O)c2cccc3cccnc23)cc1 (stereo not given) -12.6%
